Measured values published in the RNAGym collection of RNA variant scans (doi:10.7554/elife.90254).
Read counts are not given, so values of variants with three or more changes are uncertain.

B1: LINE1-mini (parent)
chain: GGCAGAGCUCAACACAGCGUGGCAAAGUGGCUGUGGCUAGACUGCC

Variants of: B1
Experiment: self-cleavage, relative activity (ratio to wild type); higher = more cleavage; in vitro, sequencing; the parent is a self-cleaving ribozyme
Variant GGCAGAGCUCAACAAAGCGUGGCAAUGUGUCUGUGGAUAGACUGCC has a self-cleavage of 0.02. For GGCAGAGCUCAACAAAGCCUGGCAAAGUGGAUGUGGCAAGACUGCC, the self-cleavage was 0.03. In the case of GGCAGAGCUCAACAAAGCGUGGCAAUGUGGCUGUGGCUAGACUGCG, the self-cleavage is reported as 0.07. With GGCAGAGCUCAACAAAGCGUGGCAAAGUGGCUGUGGCUAGGGUGCC the self-cleavage was 0.06. In the case of GGCAGAGCUCAACAAAGCGUGGUAAAGUGGCUGUUGCUAGAGUGCC, the self-cleavage is reported as 0.03. Variant GGCAGAGCUCAACAAAGCGUGACAAAGUGGCUGUGCCUAGACUGCC has a self-cleavage of 0.01. For GGCAGAGCUCAACAAAGCGUGGCAAAGUGGCUGUGGCUAGUCUACC, the self-cleavage was 0.04. Work on GGCAGAGCUCAACAAACGGUGGCUUAGUGGCUGUGGCUAGACUGCC yielded a self-cleavage of 0.01. GGCAGAGCUCAACAAAUCGUGGCAAAGUGGCUGUUGCUAGACUGCC showed a self-cleavage of 0.02. With GGCAGAGCUCAACAAAGCGUGGCAAAAUGGCUGUGGCUUGACUGCC the self-cleavage was 0.07. For GGCAGAGCUCAACAAAGCGUGGCAAAGUGGAUGUGGCUAGACUGCA, the self-cleavage was 0.07. With GGCAGAGCUCAACAAAACGUGCCAAAGUGGCUGCGGCUAGACUGCC the self-cleavage was 0.06. Variant GGCAGAGCUCAACAAAGCGUUGGAAAGUGGCUGUGGCUAGACUGGG has a self-cleavage of 0.01. GGCAGAGCUCAACAAAGCGUGGUAAAGUGGCUCUGGCUAGACUGCC showed a self-cleavage of 0.17. Work on GGCAGAGCUCAACAAAGCGUGGUAAAGUGGCUUUGGCUAGACUGCC yielded a self-cleavage of 0.68. In the case of GGCAGAGCUCAACAAAUGGUGCCAAAGUGGAUGUGGCUAGACUGCC, the self-cleavage is reported as 0.03. With GGCAGAGCUCAACAAACCGAGGCAAAGUGGCUGUGGCUUGACUGCC the self-cleavage was 0. With GGCAGAGCUCAACAAAACGUGCCAAAGAGGCUGUGGCUAGACUGCC the self-cleavage was 0.03. In the case of GGCAGAGCUCAACAAAGAGUGGCAAAGUGGAUGUGAGUAGACUGCG, the self-cleavage is reported as 0.01. For GGCAGAGCUCAACAAAGCGUGUCAGAGCGGCUGUGGCCAGACUGCC, the self-cleavage was 0.03. For GGCAGAGCUCAACAAAGCGUGGCAAAGUGGUUGUGGCUAGAUUGCC, the self-cleavage was 0.04. GGCAGAGCUCAACAAAGCGUGGCAAGGUUACUGUGGAUAGAGUACC gave a self-cleavage of 0.02. Variant GGCAGAGCUCAACAAAGCGUGGAAAAGUGGCUGGGGCUAGACUGCC has a self-cleavage of 0.03. Variant GGCAGAGCUCAACAAAGCCUGGCAAAGUGGCUGCGGCUAGACUGUC has a self-cleavage of 0.04. Variant GGCAGAGCUCAACAAAGCGUGGCAACGUGGCUGUGACUUGACUGCC has a self-cleavage of 0.04. In the case of GGCAGAGCUCAACAAAGCCUGGCAAAGUUGCUGUGGCUAGACUGCC, the self-cleavage is reported as 0.03. Variant GGCAGAGCUCAACAAACCGUGGCAAAAUGGCUGUGGCUAGACUGCC has a self-cleavage of 0.06. Work on GGCAGAGCUCAACAAAGCGUGGCAAAGUGGCUGUGGCUUGGCCGCC yielded a self-cleavage of 0.02. With GGCAGAGCUCAACAAAUCUUGGCAAAGUGGCUUUGGCUACAUUGCC the self-cleavage was 0.06. With GGCAGAGCUCAACAAAGCGUUGAAAAGUGGCUGUGGCUAGACUGCU the self-cleavage was 0.05. Variant GGCAGAGCUCAACAAAGCGUGGUAAAGUGGCUGUGGCAAAACUGUC has a self-cleavage of 0.13. GGCAGAGCUCAACAAAGCGUGGCAAAAUGGCGGUGGCUAGACUGUC gave a self-cleavage of 0.05. GGCAGAGCUCAACAAAACCUGGCAAAGUGGCUGGGUAAAGACUGCC gave a self-cleavage of 0.02. For GGCAGAGCUCAACAAAGCGUGGAAAAGUGGCUCUGGCUAGACUGCC, the self-cleavage was 0.05. With GGCAGAGCUCAACAAAGCGUGGGAAAGUGGCCGUGGCUAGACUGCC the self-cleavage was 0.07. GGCAGAGCUCAACAAAGCAUGGCAAAGUGGCUGUGGCAAGACUGCU showed a self-cleavage of 0.05. Variant GGCAGAGCUCAACAAACGGUGGCAAAGUGGCUCUGGCUAGACUGCC has a self-cleavage of 0.01. GGCAGAGCUCAACAAAGCGUGGCAAAAUGGGUGUGGCUAGACUGCC gave a self-cleavage of 0.02. GGCAGAGCUCAACAAAGCGUUGCGAAGUGGCUGUGGCUAGACUGCC gave a self-cleavage of 0.14. Variant GGCAGAGCUCAACAAACCGUGGCAAAGUCGCUGUGGCUAGACUGCC has a self-cleavage of 0.05. Work on GGCAGAGCUCAACAAAGCGUUGCAAAGUGGCUGUAGCUAGACUGCC yielded a self-cleavage of 0.04. Variant GGCAGAGCUCAACAAAGCGUGACAAAGUGGCUGUGGCCUGACUGCC has a self-cleavage of 0.04. GGCAGAGCUCAACAAAGCGUGUCAGAGUGGCUGUGGCUAGACUGCC gave a self-cleavage of 0.17. GGCAGAGCUCAACAAAGCGUUGCAAAGUGGCUGUGGCUAGAUUGCC showed a self-cleavage of 0.07. For GGCAGAGCUCAACAAAGCGUAGCAAACUGGCUGUGGCUAGACUGCC, the self-cleavage was 0. Variant GGCAGAGCUCAACAAACCGUGGCAAAGUGGCUGAGGCUAGACUGCC has a self-cleavage of 0.06. GGCAGAGCUCAACAAAGCGUGGAAGAGUGGCUGUGGCUAGACUGCC showed a self-cleavage of 0.1. GGCAGAGCUCAACAAAGCGUGGCAAAUUGGCUGUGGAUAGACUGGC showed a self-cleavage of 0.03. Work on GGCAGAGCUCAACAAAGCGUGGGCAAGUGGCUAUGGCUAGACUGCC yielded a self-cleavage of 0.02. Work on GGCAGAGCUCAACAAAGCGUUGCAAAGUGGCUGUGGCUACAUUGCC yielded a self-cleavage of 0.06. With GGCAGAGCUCAACAAAGCGUGGCAAAAUGGCUGUGGCUAGACUGAC the self-cleavage was 0.05. Work on GGCAGAGCUCAACAAAGCCUCGCAAAGUGGCUUUGGCUAGACUGCC yielded a self-cleavage of 0.58. Variant GGCAGAGCUCAACAAAGCGUGUCAAAGUGGCUGUGGCUAGACUGCG has a self-cleavage of 0.03. Work on GGCAGAGCUCAACAAAGCGUGCCAAAGUGGCUGUGGCUAAACUGCA yielded a self-cleavage of 0.04. With GGCAGAGCUCAACAAAUCGAGGCAAAGUGGCUGUGGCUGGACUGCU the self-cleavage was 0.02. GGCAGAGCUCAACAAAGCGUAGCAAAGUGGCUGUGGCUAGACUUUC gave a self-cleavage of 0.04.
